Assay results from PubChem BioAssay (NCATS).
“And” between values parts separate entries of the source, which are not always exact repeats. Identical values can stand only once. This list was built around the results that the source calls inconclusive (neither active nor inactive); the mix of calls is not that of the screen. Potencies of inconclusive entries are doubtful fits and often do not repeat. The source made the active and inactive calls. Calls follow the shape of the dose curve; as a rule, active = well fitted activation curve with a large enough effect; inconclusive = small, poorly fitted or top-dose-only effect; inactive = no such curve, though single readings can be large or run the other way.

Biological target: Cellular tumor antigen p53 (Homo sapiens) (UniProt P04637)
Chain of UniProt P04637 (P04637 whole entry, looked up): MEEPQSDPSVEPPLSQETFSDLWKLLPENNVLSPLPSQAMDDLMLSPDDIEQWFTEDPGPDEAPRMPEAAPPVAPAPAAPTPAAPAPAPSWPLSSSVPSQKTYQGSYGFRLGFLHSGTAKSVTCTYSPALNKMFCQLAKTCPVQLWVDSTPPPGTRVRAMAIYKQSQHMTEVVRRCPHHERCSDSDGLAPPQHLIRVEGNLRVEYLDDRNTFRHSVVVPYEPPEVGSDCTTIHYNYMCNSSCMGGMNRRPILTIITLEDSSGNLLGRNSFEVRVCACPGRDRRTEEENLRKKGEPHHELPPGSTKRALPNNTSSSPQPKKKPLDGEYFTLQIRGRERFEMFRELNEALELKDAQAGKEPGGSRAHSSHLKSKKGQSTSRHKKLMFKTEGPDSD
Assay: Primary qHTS for small molecule compounds that upregulate eGFP-tagged delta133p53alpha (in N-terminal) cells. (AID 2060322); also: nearly all actives have a fitted effect of over 75% in size;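 as to activation: series mostly up to about 56 µM; 0% = DMSO vehicle and 100% = reference activator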
Details: NCI-H358 eGFP-delta133p53alpha fluorescence, 24 h; activation: active compounds read high
Outline: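 NCI-H358 cells pre-induced 24 h with 10 ng/ml doxycycline to express N-terminal eGFP-delta133p53alpha, then dosed 24 h at 37C without doxycycline; fixed, Hoechst-stained, GFP intensity by laser scanning cytometry, normalized to DMSO (0%) and 57.5 uM 5-azacytidine (100%).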
Potency is read from the fitted curve at half-maximal effect; tags tell the direction and shape of the fitted curve.

SMILES	activation	Potency
C=CCC1(C(C)CC)C(=O)NC(=O)NC1=O (stereo not drawn)	inconclusive: 35.6% [activator]	–
COc1cc(CCN)cc(OC)c1OC	inactive: -6.21%	–
COC1CCCC(C)OC(=O)Cc2cc(O)cc(O)c2C(=O)C1 (stereo not drawn)	–	active: 16.6 µM
CCC(=O)C(CCN(C)C)(c1ccccc1)c1ccccc1	–	active: 13.8 µM
Oc1ccc(Cl)cc1Cc1ccccc1	–	active: 45.5 µM and active: 24.6 µM
CCOP(=O)(OCC)Oc1ccc2c(C)cc(=O)oc2c1	inactive: 6.33%	–
CCN(CC)C(=O)[C@@H]1C=C2c3cccc4[nH]cc(c34)C[C@H]2N(C)C1	–	inconclusive: 41.6 µM [activator, partial curve, poor fit]
C=C(CO)[C@@]12O[C@@H]1[C@@]1(C)C(=CC2=O)CC[C@@H](O)[C@@H]1C	–	inconclusive: 30.1 µM [activator, single point]
COc1nn(CSP(=S)(OC)OC)c(=O)s1	–	inconclusive: 63.2 µM [activator, single point]
C=C(C)[C@@]12O[C@@H]1[C@@]1(C)C(=CC2=O)CC[C@@H](OC(C)=O)[C@@H]1C	–	active: 30.1 µM
CO[C@@H]1[C@H](O)[C@@H](O[C@@H]2C[C@H]3CC[C@@H]4C(CC[C@]5(C)[C@@H](C6=CC(=O)OC6)CC[C@]45O)[C@@]3(C)[C@H](O)C2)O[C@H](C)[C@@H]1O[C@@H]1O[C@H](CO)[C@@H](O)[C@H](O)[C@H]1O (stereo partly drawn)	–	inconclusive: 0.793 µM [activator, full curve]
CC(C)[C@H]1OC(=O)[C@H](Cc2ccccc2)N(C)C(=O)[C@@H](C(C)C)OC(=O)[C@H](Cc2ccccc2)N(C)C(=O)[C@@H](C(C)C)OC(=O)[C@H](Cc2ccccc2)N(C)C1=O	–	inconclusive: 3.16 µM [activator, partial curve, poor fit]
C/C=C(/C)C(=O)O[C@H]1[C@@H]2[C@H](C)C(=O)O[C@@H]2C[C@@H](C)[C@@H]2C=CC(=O)[C@]21C	–	inconclusive: 26.2 µM [activator, single point]
C=C1C(=O)OC2/C=C(\COO)CC/C=C(\COC(C)=O)CC(OC(=O)C(C)CC)C12 (stereo not drawn)	–	active: 9.28 µM
CN1Cc2c(ccc3c2OCO3)[C@@H]2[C@H]1c1cc3c(cc1C[C@@H]2O)OCO3	–	inconclusive: 3.71 µM [activator, full curve, poor fit]
COc1cccc(C(=O)CCN[C@@H](C)[C@H](O)c2ccccc2)c1	–	inconclusive: 38.9 µM [activator, single point]
Nc1ccc(N=Nc2ccccc2)cc1	–	inconclusive: 0.1 µM [activator, full curve, poor fit]
CC[C@H]1C2CC3[C@@H]4N(C)c5ccccc5[C@]45C[C@@H]([C@H]2[C@H]5O)N3[C@@H]1O	–	inconclusive: 1.32 µM [activator, partial curve, poor fit]
C/C=C(\C)C(=O)OC1CC2C(CC=C3CC(OC4CC(OC)C(OC5CC(OC)C(OC6CC(OC)C(OC7CC(OC)C(O)C(C)O7)C(C)O6)C(C)O5)C(C)O4)CCC32C)C2(O)CCC(C(C)=O)C12C (stereo not drawn)	inactive: -6.11%	–

SMILES	activation	Potency
COC1CC(O[C@H]2CC[C@@]3(C)C(CCC4C3CC[C@]3(C)C(C5=CC(=O)OC5)CCC43O)C2)OC(C)C1OC1OC(COC2OC(CO)C(O)C(O)C2O)C(O)C(O)C1O (stereo partly drawn)	–	inconclusive: 5.09 µM [activator, single point]
O=C(N[C@@H]1N=C(c2ccccc2F)c2cccc3c2N(CC3)C1=O)c1cc2ccccc2[nH]1	–	inconclusive: 7.93 µM [activator, partial curve, poor fit]
CO[C@H]1[C@@H](O)[C@@H](C)O[C@@H](O[C@@H]2C=C3C(OC(C)=O)CC4(O)C(CC[C@]5(C)[C@@H](C6=CC(=O)OC6)CC[C@]45O)[C@@]3(C)CC2)[C@@H]1O (stereo partly drawn)	–	inconclusive: 1.78 µM [activator, full curve, poor fit]
COc1cc2c(cc1OC)[C@@]13CCN4CC5=CCO[C@H]6CC(=O)N2[C@H]1[C@H]6[C@H]5C[C@H]43	inactive: -22.1%	–
C#C[C@]1(O)CC[C@H]2[C@@H]3CC[C@H]4Cc5nc6nc7ccccc7n6cc5C[C@]4(C)[C@H]3CC[C@@]21C	–	inconclusive: 37.9 µM [activator, single point]
O=C1CCCN1CC#CCN1CCCC1	inactive: -14.5%	–
NC(N)=NOCCC(N)C(=O)O (stereo not drawn)	–	inconclusive: 1.35 µM [activator, full curve, poor fit]
CC(=O)O[C@H]1C[C@@H](C)O[C@H]2O[C@@H]3CC4CC[C@@H]5C(CC[C@]6(C)[C@@H](C7=CC(=O)OC7)CC[C@]56O)[C@@]4(C=O)C[C@H]3O[C@]21O (stereo partly drawn)	–	inconclusive: 0.707 µM [activator, partial curve]
CCC1(c2ccccc2)CCC(=O)NC1=O (stereo not drawn)	inactive: 4.18%	–
CC(C)=CCN1CC[C@@]2(C)c3cc(O)ccc3C[C@@H]1[C@@H]2C	–	inconclusive: 0.221 µM [activator, full curve, poor fit]
CC(=O)OCC1=C(C(=O)O)N2C(=O)[C@@H](N)[C@@H]2SC1	–	inconclusive: 0.0012 µM [activator, full curve, poor fit]
Fc1cc(F)c2c(c1)C1C=CCC1C(c1cccnc1)N2 (stereo not drawn)	–	inconclusive: 5.36 µM [activator, full curve, poor fit]
CCCCCCCCc1ccc(O)cc1	–	inconclusive: 80.2 µM [activator, single point]
Clc1ccc(CSC(Cn2ccnc2)c2ccc(Cl)cc2Cl)cc1 (stereo not drawn)	–	inconclusive: 27.6 µM [activator, single point]
CC(C)(O)/C=C/C(=O)[C@](C)(O)[C@H]1[C@H](O)C[C@@]2(C)[C@@H]3CC=C4[C@@H](C[C@H](O)C(=O)C4(C)C)[C@]3(C)C(=O)C[C@]12C	–	active: 4.65 µM
CC1=CC(=O)[C@@H](O)[C@]2(C)C3[C@@H](O)[C@@H]4OC(=O)[C@@H]([C@H]4C)[C@]3(C)C(=O)C[C@@H]12 (stereo partly drawn)	–	active: 16.6 µM
CC[C@H](O)[C@@H](C)[C@H]1O[C@@H]1C[C@H](C)/C=C/C=C(\C)[C@H]1OC(=O)C[C@H](O)CC[C@@](C)(O)[C@@H](OC(C)=O)/C=C/[C@@H]1C	–	active: 0.0675 µM
CC(=Cc1csc(C)n1)[C@@H]1C[C@H]2O[C@@H]2CCC[C@H](C)[C@@H](O)[C@@H](C)C(=O)C(C)(C)[C@@H](O)CC(=O)O1	inconclusive: 52.7% [activator]	–
C[C@]12CCC(=O)C=C1CC[C@@H]1[C@@H]2CC[C@@]2(C)[C@H]1CC[C@]2(C)O	–	inconclusive: 38.9 µM [activator, single point]
